About 14,000 (4.5%) of roughly 310,000 compounds showed an effect of 50% or more. Effects have a minus sign here. This is one part of the list.
Biological target: human ether-à-go-go-related gene (hERG) potassium channel (human, UniProt Q12809)
Assay: primary screen, population patch clamp on CHO cells stably expressing hERG
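Note: peak tail current of the secondary pulse compared with the same well before compound.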

human ether-à-go-go-related gene (hERG) potassium channel, sequence (Q12809 whole entry, looked up): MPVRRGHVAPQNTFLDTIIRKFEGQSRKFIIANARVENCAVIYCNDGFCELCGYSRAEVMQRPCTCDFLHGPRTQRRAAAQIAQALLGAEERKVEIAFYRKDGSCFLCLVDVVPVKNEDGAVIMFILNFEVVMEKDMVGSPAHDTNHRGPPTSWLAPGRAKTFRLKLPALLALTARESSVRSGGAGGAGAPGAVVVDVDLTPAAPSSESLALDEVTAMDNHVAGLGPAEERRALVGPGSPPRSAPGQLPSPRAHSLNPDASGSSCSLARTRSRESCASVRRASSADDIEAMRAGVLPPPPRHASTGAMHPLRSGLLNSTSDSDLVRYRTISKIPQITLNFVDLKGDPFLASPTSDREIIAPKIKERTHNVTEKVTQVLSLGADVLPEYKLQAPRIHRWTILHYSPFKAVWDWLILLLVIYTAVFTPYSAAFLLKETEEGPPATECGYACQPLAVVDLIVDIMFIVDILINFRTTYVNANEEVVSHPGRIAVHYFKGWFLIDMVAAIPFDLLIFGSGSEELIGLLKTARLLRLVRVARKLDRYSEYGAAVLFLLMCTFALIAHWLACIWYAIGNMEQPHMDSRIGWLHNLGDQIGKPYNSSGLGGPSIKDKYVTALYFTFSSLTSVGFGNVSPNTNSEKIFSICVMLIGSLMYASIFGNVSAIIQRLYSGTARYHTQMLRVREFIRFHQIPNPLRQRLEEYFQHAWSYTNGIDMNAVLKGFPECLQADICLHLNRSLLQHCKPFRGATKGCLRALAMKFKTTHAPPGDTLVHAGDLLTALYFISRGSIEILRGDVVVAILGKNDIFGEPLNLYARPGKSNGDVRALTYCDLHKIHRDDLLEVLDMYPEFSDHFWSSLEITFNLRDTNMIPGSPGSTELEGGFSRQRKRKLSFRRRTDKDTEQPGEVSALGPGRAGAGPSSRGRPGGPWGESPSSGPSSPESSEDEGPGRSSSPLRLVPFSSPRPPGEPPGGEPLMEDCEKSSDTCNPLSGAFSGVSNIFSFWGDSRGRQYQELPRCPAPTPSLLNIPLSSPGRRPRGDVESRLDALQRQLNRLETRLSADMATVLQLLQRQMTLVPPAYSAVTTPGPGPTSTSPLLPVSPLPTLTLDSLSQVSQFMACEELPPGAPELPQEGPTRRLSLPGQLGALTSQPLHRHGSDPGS

Q: Which “hERG current change (%, negative = inhibition) at 10uM” value does the source give for CCOC(=O)CC(=O)CSc1nnc2sc3ccccc3n12 here?
A: Its value is 7.59%.

Q: For COc1ccc(N2CCN(C(=O)c3cc(C)on3)CC2)cc1, which “hERG current change (%, negative = inhibition) at 10uM” value is on record?
A: Its value is 6.64%.

Q: Which “hERG current change (%, negative = inhibition) at 10uM” value does the source give for N#CC1=C(N)Oc2n[nH]c(-c3ccc(F)cc3)c2C1c1ccncc1 (stereo not shown) here?
A: Its value is 9.26%.

Q: How did the “hERG current change (%, negative = inhibition) at 10uM” value turn out when CC1CCC(NC(=O)C(C)N2C(=O)C3CCCCC3C2=O)CC1 (stereo not shown) was run?
A: Its value is 11.2%.

Q: Which “hERG current change (%, negative = inhibition) at 10uM” value does the source give for CCN1CCN(C(=O)CS(=O)Cc2nc(-c3cccc(C)c3)oc2C)CC1 (stereo not shown) here?
A: The value was 3.36%.

Q: With O=C1C(c2cc(=O)c3ccccc3[nH]2)=C(O)c2ccccc21 as the compound, how does the “hERG current change (%, negative = inhibition) at 10uM” value read?
A: Its value is 13.2%.

Q: With COc1cc(C(=O)NCc2nc(C)cs2)ccc1OC1CCN(C(C)=O)CC1 as the compound, how does the “hERG current change (%, negative = inhibition) at 10uM” value read?
A: The value was 6.58%.

Q: With O=C(O)COc1ccccc1/C=N/NC(=O)CN1CCN(Cc2ccccc2Cl)CC1 as the compound, how does the “hERG current change (%, negative = inhibition) at 10uM” value read?
A: The value was -0.129%.

Q: For Cc1cccc(Cn2cnc3c(nnn3Cc3ccccc3F)c2=O)c1, which “hERG current change (%, negative = inhibition) at 10uM” value is on record?
A: Its value is -36.9%.

Q: For O=C(CN1CCN(Cc2ccccc2F)C1=O)NCCc1ccc(Cl)cc1, which “hERG current change (%, negative = inhibition) at 10uM” value is on record?
A: The value was -52.8%.

Q: With CC(C)N(Cc1ccccc1)C(=O)CN1C(=O)c2ccccc2C1=O as the compound, how does the “hERG current change (%, negative = inhibition) at 10uM” value read?
A: The value was 4.96%.

Q: With NC(=S)N/N=C/c1cccc(Br)c1 as the compound, how does the “hERG current change (%, negative = inhibition) at 10uM” value read?
A: The value was 1.68%.

Q: With CCc1cc2c(-c3ccccc3)cc(=O)oc2cc1OC(C)C(=O)NCC1CCC(C(=O)O)CC1 (stereo not shown) as the compound, how does the “hERG current change (%, negative = inhibition) at 10uM” value read?
A: Its value is 12.5%.

Q: Cc1cc(S(=O)(=O)N2CCN(CC(=O)NCCc3cccs3)CC2)ccc1Br was tested. Which “hERG current change (%, negative = inhibition) at 10uM” value did it give?
A: Its value is -29.6%.

Q: Which “hERG current change (%, negative = inhibition) at 10uM” value does the source give for Cc1cccc(-c2nc(Nc3ccc(O)cc3)c3ccccc3n2)c1 here?
A: Its value is 11.3%.

Q: CC(Sc1nnc(COc2ccc([N+](=O)[O-])cc2)n1C)C(=O)O (stereo not shown) was tested. Which “hERG current change (%, negative = inhibition) at 10uM” value did it give?
A: The value was 14.6%.

Q: With O=C(CSc1nc2ccccc2o1)Nc1ccc(N2CCOCC2)cc1 as the compound, how does the “hERG current change (%, negative = inhibition) at 10uM” value read?
A: The value was -4.24%.

Q: How did the “hERG current change (%, negative = inhibition) at 10uM” value turn out when C=CCn1c(O)c(/C(C)=N/NC(=S)Nc2ccccc2)c(=O)[nH]c1=O was run?
A: The value was 22.4%.

Q: Cc1cc(C(=O)NCCN2CCOCC2)ccc1[N+](=O)[O-] was tested. Which “hERG current change (%, negative = inhibition) at 10uM” value did it give?
A: Its value is 19.2%.

Q: Which “hERG current change (%, negative = inhibition) at 10uM” value does the source give for CCOC(=O)c1ccc2ncc(C(=O)OCC)c(NCc3ccco3)c2c1 here?
A: The value was -24.7%.

Q: With CCOC(=O)CNc1c(N2CCN(c3ccccn3)CC2)c(=O)c1=O as the compound, how does the “hERG current change (%, negative = inhibition) at 10uM” value read?
A: Its value is 5.74%.

Q: O=C(CSc1ccc(-c2ccco2)nn1)NCc1ccccc1Cl was tested. Which “hERG current change (%, negative = inhibition) at 10uM” value did it give?
A: The value was -49.1%.

Q: With Cc1ccc(S(=O)(=O)N(C)c2ccc(C(=O)O)cc2)cc1 as the compound, how does the “hERG current change (%, negative = inhibition) at 10uM” value read?
A: Its value is -17.1%.

Q: How did the “hERG current change (%, negative = inhibition) at 10uM” value turn out when O=C(CCC(=O)OCC(=O)c1ccccc1)NC1CCCCC1 was run?
A: The value was 6.44%.

Q: How did the “hERG current change (%, negative = inhibition) at 10uM” value turn out when Cc1cccc(NC(=O)C2CC(=O)n3cnnc3S2)c1 (stereo not shown) was run?
A: Its value is 0.365%.
